# Test results reported in PubChem BioAssay AID686979 (National Center for Advancing Translational Sciences (NCATS), 2013).
# The campaign covered roughly 420,000 compounds. About 50,000 (12%) were called active. The shares of active, inactive and inconclusive entries below differ from those in the screen. Calls come from the whole dose curve; as a rule, active = well fitted inhibition curve with a large enough effect; inconclusive = small, poorly fitted or top-dose-only effect; inactive = flat fitted curve, though single readings scatter. Potencies of inconclusive entries are left out as doubtful fits. Some compounds were tested as several samples or in several runs, with calls that do not always agree.
# Experiment: qHTS for Inhibitors of human tyrosyl-DNA phosphodiesterase 1 (TDP1): qHTS in cells in presence of CPT; note: nearly all actives have a fitted effect of over 55% in size
# Conditions: chicken DT40 Tdp1-/-;hTDP1 cells + 20 nM CPT, ATP luminescence, 48 h; series mostly up to 46.2 µM
# Summary of the method: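 Cell growth measured by CellTiter-Glo luminescence after a minimum 48 h, 37 C compound exposure with 20 nM CPT in Tdp1-knockout DT40 cells stably expressing hTDP1, seeded 400/well; qHTS titration format.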
# Potency is the fitted concentration of half-maximal effect; tags give direction and shape of the fitted curve.
row,Structure (SMILES),Potency
1,CC(=O)N1CCN(CC(=O)Nc2ccccc2C(=O)NCc2ccc(C)cc2)CC1,inactive
2,CCN(c1ccccc1)S(=O)(=O)c1ccc(Cl)c(NC(=O)CNCc2ccccc2OC)c1,"inconclusive [inhibitor, single point]"
3,Cc1cc(C(=O)Nc2cccc(S(=O)(=O)N3CCCCC3)c2)c2ccccc2n1,"inconclusive [inhibitor, single point]"
4,O=C(c1ccccc1)c1ccc2nc(-c3ccc(NC(=O)c4ccccc4F)cc3)[nH]c2c1,active: 3.66 µM
5,COc1ccc(S(=O)(=O)N2CCC3(CC2)OCCN3S(=O)(=O)c2ccc(OC)cc2)cc1,"inconclusive [inhibitor, single point]"
6,COc1cc(OC)c(C#N)c(S(=O)Cc2ccccc2)c1 (configuration not stated),inactive
7,CCC(=O)N1N=C(c2ccc(C)o2)CC1c1ccc(Br)cc1 (configuration not stated),"inconclusive [inhibitor, single point]"
8,NC(=O)C1CCN(c2cc(Cl)nc(N)n2)CC1,"inconclusive [inhibitor, partial curve]"
9,O=C(O)c1ccsc1Cc1cccs1,"inconclusive [inhibitor, single point]"
10,CCOc1cc(CNC(=O)NC2COc3ccc(OC)cc3C2)cc(OCC)c1OCC (configuration not stated),"inconclusive [inhibitor, partial curve]"
11,COc1ccc(N2CCN(C(=O)c3ccc(S(=O)(=O)N4CCCC4)cc3)CC2)cc1,"inconclusive [inhibitor, single point]"
12,O=C(NC1CCCCC1)C(c1ccc(F)cc1)N(Cc1cccs1)C(=O)CN1C(=O)c2ccccc2S1(=O)=O (configuration not stated),active: 16.4 µM
13,COc1ccc2nc(NN=C(C)c3ccccn3)cc(C)c2c1,active: 1.64 µM
14,COc1ccc(-n2c(Cn3c(=O)sc4ccccc43)nnc2SCC(=O)N2CCCCC2)cc1,"inconclusive [inhibitor, partial curve, poor fit]"
15,CNC(=O)c1ccsc1NC(=O)CS(=O)(=O)c1ccc(F)cc1,"inconclusive [inhibitor, single point]"
16,CCOC(=O)Cc1csc(NC(=O)c2ccc(F)cc2)n1,"inconclusive [inhibitor, single point]"
17,Cn1c(=O)cc(Nc2ccc(Cl)cc2)[nH]c1=O,"inconclusive [inhibitor, single point]"
18,CC(=O)N=c1scc(-c2ccccc2)n1-c1cccc(O)c1,"inconclusive [inhibitor, single point]"
19,Cc1c(Cl)cccc1NC(=O)CN(CCc1ccccc1)S(=O)(=O)c1ccccc1,"inconclusive [inhibitor, single point]"
20,C=CCNCCCOc1ccc(Cl)cc1C(C)(C)C,"inconclusive [inhibitor, single point]"
21,COc1ccccc1CN1CC[C@@]2(CCCN(C(=O)c3ccncc3)C2)C1,inactive
22,COc1ccc(S(=O)(=O)N2CCc3ccccc32)cc1C(=O)N1CCOCC1,inactive
23,CCOc1ccc2oc(C(=O)NC3CC(C)(C)NC(C)(C)C3)c(C)c2c1,"inconclusive [inhibitor, single point]"
24,NS(=O)(=O)c1ccc(CNC(=O)CNC(=O)c2ccc(Br)o2)cc1,inactive

row,Structure (SMILES),Potency
1,CCOc1ccc(CNCc2c(C(=O)O)n(Cc3ccc(C)cc3)c3cc(C)ccc23)cc1,"inconclusive [inhibitor, single point]"
2,Cc1ccc(-c2nc(CCN3C(=O)c4ccccc4C3=O)cs2)cc1,"inconclusive [inhibitor, single point]"
3,CC(C)NC(=O)CN1C(=O)c2cccc3cccc1c23,inactive
4,COc1ccc(C(=O)N(C)CCCC2CCCC2)cc1OC1CCN(C(C)=O)CC1,"inconclusive [inhibitor, partial curve]"
5,Cc1cccc(C(=O)N2CCc3cc(CNS(=O)(=O)c4ccc(Cl)s4)ccc32)c1,active: 23.1 µM
6,Cc1ccccc1OCC(=O)Nc1ccc(-c2nc3ncccc3o2)cc1,"inconclusive [inhibitor, single point]"
7,CCCCN(CC)CCNC(=O)c1cc2c(=O)[nH]c3ccccc3c2n1C,active: 14.6 µM
8,CN(CCc1ccccc1)C(=O)c1ccc(NC(=O)Cc2ccc(NC(=O)C3CCCN(C(=O)C4CCC4)C3)cc2)cc1 (configuration not stated),active: 13 µM
9,CCOc1ccc(OCCC(=O)OCC(=O)NC(C)c2ccccc2)cc1 (configuration not stated),inactive
10,CN(C)S(=O)(=O)c1cc(NC(=O)COC(=O)/C=C/c2ccco2)ccc1Cl,inactive
11,Cc1cc(NC(=O)c2ccc(S(=O)(=O)N3CCCC3)cc2)nc2c1c(=O)oc1ccccc12,active: 7.31 µM
12,Cc1ccccc1Nc1ncnc2c1cnn2C,"inconclusive [inhibitor, single point]"
13,Cc1cccc(C)c1Nc1nnc(SCC(=O)c2ccc3c(c2)NC(=O)CO3)s1,inactive
14,CC(NC(=S)Nc1ccc(F)cc1)C(c1cccs1)N1CCOCC1 (configuration not stated),"inconclusive [inhibitor, full curve, poor fit]"
15,CCCCn1nc(NC(=O)c2cccc(Cl)c2)c2cc3ccccc3nc21,"inconclusive [inhibitor, partial curve]"
16,C/C(=N\NC(=O)CNc1cccc(C(F)(F)F)c1)c1cccs1,inactive
17,O=C(NCc1ccccc1)c1ccc(CSc2nc3cccnc3n2Cc2cccc(F)c2)cc1,active: 13 µM
18,Cc1ccc(C(=O)c2cnc3cc4c(cc3c2S(=O)(=O)c2ccccc2)OCCO4)cc1,active: 18.4 µM
19,COc1ccc(OC)c(C2CC(c3c(-c4ccccc4)c4cc(Cl)ccc4[nH]c3=O)=NN2S(C)(=O)=O)c1 (configuration not stated),"inconclusive [inhibitor, single point]"
20,COc1ccc(CNC(=O)CSc2nnc(NC(=O)c3ccccc3F)s2)cc1,inactive
21,O=C1CC(c2ccccc2)CC(=NCCO)/C1=C(\O)CCCN1C(=O)c2ccccc2C1=O (configuration not stated),inactive
22,CCCN(CCC)c1ncnc2nc[nH]c12,"inconclusive [inhibitor, full curve]"
23,CN(C)c1nc(OCCNC(=O)COc2ccccc2Cl)nc(N(C)C)n1,"inconclusive [inhibitor, partial curve]"
24,CCOC(=O)c1sc(NC(=O)c2ccc(S(=O)(=O)N3CCOCC3)cc2)nc1-c1ccccc1,"inconclusive [inhibitor, single point]"

row,Structure (SMILES),Potency
1,CCCCn1c(NCc2ccc(OC)cc2O)nc2ccccc21,active: 14.6 µM
2,COc1cc2nc(C3CCC3)nc(N3CCN(c4ccccn4)CC3)c2cc1OC,active: 9.2 µM
3,COc1ccccc1CN1CC[C@@]2(CCCN(S(C)(=O)=O)C2)C1,"inconclusive [inhibitor, partial curve]"
4,COc1cc2nc(C3CC3)n(NC(=O)c3ccc(F)cc3)c(=O)c2cc1OC,inactive
5,O=C(Nc1ccc(S(=O)(=O)Nc2ncccn2)cc1)c1ccc2ncsc2c1,"inconclusive [inhibitor, partial curve]"
6,Cc1ccccc1CN1C(=O)c2ccccc2Sc2ccc(C(=O)N3CCCC3)cc21,active: 20.6 µM
7,O=C(NCc1cccs1)c1nc2c(nnn2Cc2ccc(F)cc2)c(=O)[nH]1,"inconclusive [inhibitor, single point]"
8,Cc1ccc(S(=O)(=O)N(CC(=O)N2CCN(c3ccc(F)cc3)CC2)C2CCCCC2)cc1,"inconclusive [inhibitor, single point]"
9,Cc1cc2sc3nc(=O)n(-c4ccccc4)c(=O)n3c2cc1C,"inconclusive [inhibitor, single point]"
10,O=C(Nc1ccccc1)Nc1ccc(C(=O)N2CCCC2)cc1,active: 20.6 µM
11,O=[N+]([O-])c1ccc(/C=C/c2ccnc3ccccc23)cc1,active: 11.2 µM
12,COc1ccc(Nc2cccccc2=O)cc1,"inconclusive [inhibitor, full curve, poor fit]"
13,CCCc1nc2ccccc2n2c(-c3ccccc3)c3c(=O)n(C)c(=O)n(C)c3c12,active: 13 µM
14,Cn1c(=O)c2c(nc(SCCCC#N)n2Cc2ccccc2F)n(C)c1=O,"inconclusive [inhibitor, single point]"
15,CCNC(=S)NNC(=S)NCc1ccccc1,"inconclusive [inhibitor, single point]"
16,Cc1ccc(OCCC(=O)OCC(=O)Nc2ccc3c(c2)OCCO3)cc1,inactive
17,COc1ccc(OC)c(NC(=O)COc2ccc(S(=O)(=O)N3CCCC3)cc2)c1,inactive
18,COc1ccc(Cc2noc(CN3CCN(c4ccc(Cl)cn4)CC3)n2)cc1OC,"inconclusive [inhibitor, single point]"
19,CCN(CC)c1ccc(C(=O)Nn2cnc3ccccc3c2=O)cc1,inactive
20,O=C1c2ccccc2NC(c2ccc3c(c2)OCO3)N1Cc1ccco1 (configuration not stated),"inconclusive [inhibitor, single point]"
21,COc1ccc(C(=O)NCCc2cccc(Cl)c2)cc1OC1CCN(C(C)=O)CC1,"inconclusive [inhibitor, single point]"
22,Oc1cnn(-c2ccccc2)c1,"inconclusive [inhibitor, single point]"
23,O=S(=O)(c1ccc(NC(=S)N/N=C/c2ccc(Oc3ccccc3)cc2)cc1)N1CCOCC1,inactive
24,CCN(CC)c1ccc(/C=N/OCC(=O)Nc2cccc(C)c2)cc1,"inconclusive [inhibitor, single point]"
